# In the supplement of paper PMC8728848:
# Some of the results follow.
# B1: HPA (Helix pomatia), Q575S3 (protein)
# chain: MWAHLTGLLLICALSLSAAQRAQTGEIDCGSDSSWPKDPSDNPNRDNTREIVKHVTFSPQFCREPKVILSVTTLDAEHTKNLRYEARLKSVSPSGLSASCYSWHDGTIYRMKLSWLAVED
# What was measured:
# Experiment in all cases: glycan array binding signal (z-score within array); higher = stronger binding
# Conditions in all cases: glycan notation: IUPAC condensed, linker removed
# [1] = target: Gal(b1-4)GalNAc(b1-3)[Fuc(a1-2)]Gal(b1-4)GlcNAc
# Method in brief: (§1)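 Columns mapping to the same glycan were averaged after glycan names were converted to IUPAC-condensed notation. The data come from 3228 arrays in the Consortium for Functional Glycomics database, limited to those with an available protein sequence. Binding is reported as a within-array Z-score averaged across arrays of one protein sequence and across linkers.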
# [2] = target: Gal(b1-4)Glc
# Method in brief: as §1
# [3] = target: Gal(b1-4)Glc6S
# Method in brief: as §1
# [4] = target: Gal(b1-4)GlcNAc
# Method in brief: as §1
# [5] = target: Gal(b1-4)GlcNAc(a1-6)Gal(b1-4)GlcNAc
# Method in brief: as §1
# [6] = target: Gal(b1-4)GlcNAc(b1-2)Man
# Method in brief: as §1
# [7] = target: Gal(b1-4)GlcNAc(b1-2)Man(a1-3)Man(b1-4)GlcNAc(b1-4)GlcNAc
# Method in brief: as §1
# [8] = target: Gal(b1-4)GlcNAc(b1-2)Man(a1-3)[Gal(b1-4)GlcNAc(b1-2)Man(a1-6)]Man(b1-4)GlcNAc(b1-4)GlcNAc
# Method in brief: as §1
# [9] = target: Gal(b1-4)GlcNAc(b1-2)Man(a1-3)[Gal(b1-4)GlcNAc(b1-2)Man(a1-6)]Man(b1-4)GlcNAc(b1-4)[Fuc(a1-6)]GlcNAc
# Method in brief: as §1
# [10] = target: Gal(b1-4)GlcNAc(b1-2)Man(a1-3)[Gal(b1-4)GlcNAc(b1-2)Man(a1-6)][Gal(b1-4)GlcNAc(b1-4)]Man(b1-4)GlcNAc(b1-4)[Fuc(a1-6)]GlcNAc
# Method in brief: as §1
# [11] = target: Gal(b1-4)GlcNAc(b1-2)Man(a1-3)[Gal(b1-4)GlcNAc(b1-2)Man(a1-6)][GlcNAc(b1-4)]Man(b1-4)GlcNAc(b1-4)[Fuc(a1-6)]GlcNAc
# Method in brief: as §1
# [12] = target: Gal(b1-4)GlcNAc(b1-2)Man(a1-3)[Gal(b1-4)GlcNAc(b1-2)][GlcNAc(b1-4)]Man(b1-4)GlcNAc(b1-4)GlcNAc
# Method in brief: as §1
# [13] = target: Gal(b1-4)GlcNAc(b1-2)Man(a1-3)[GlcNAc(b1-2)Man(a1-6)]Man(b1-4)GlcNAc(b1-4)GlcNAc
# Method in brief: as §1
# [14] = target: Gal(b1-4)GlcNAc(b1-2)Man(a1-3)[GlcNAc(b1-4)][Gal(b1-4)GlcNAc(b1-2)Man(a1-6)]Man(b1-4)GlcNAc(b1-4)GlcNAc
# Method in brief: as §1
# [15] = target: Gal(b1-4)GlcNAc(b1-2)Man(a1-3)[Man(a1-6)]Man(b1-4)GlcNAc(b1-4)GlcNAc
# Method in brief: as §1
# [16] = target: Gal(b1-4)GlcNAc(b1-2)Man(a1-6)Man(b1-4)GlcNAc(b1-4)GlcNAc
# Method in brief: as §1
# [17] = target: Gal(b1-4)GlcNAc(b1-2)Man(a1-6)[GlcNAc(b1-2)Man(a1-3)]Man(b1-4)GlcNAc(b1-4)GlcNAc
# Method in brief: as §1
# [18] = target: Gal(b1-4)GlcNAc(b1-2)Man(a1-6)[Man(a1-3)]Man(b1-4)GlcNAc(b1-4)GlcNAc
# Method in brief: as §1
# [19] = target: Gal(b1-4)GlcNAc(b1-2)[Gal(b1-4)GlcNAc(b1-4)]Man(a1-3)[Gal(b1-4)GlcNAc(b1-2)Man(a1-6)]Man(b1-4)GlcNAc(b1-4)GlcNAc
# Method in brief: as §1
# [20] = target: Gal(b1-4)GlcNAc(b1-2)[Gal(b1-4)GlcNAc(b1-4)]Man(a1-3)[Gal(b1-4)GlcNAc(b1-2)[Gal(b1-4)GlcNAc(b1-6)]Man(a1-6)]Man(b1-4)GlcNAc(b1-4)GlcNAc
# Method in brief: as §1
# [21] = target: Gal(b1-4)GlcNAc(b1-2)[Gal(b1-4)GlcNAc(b1-4)]Man(a1-3)[GlcNAc(b1-4)][Gal(b1-4)GlcNAc(b1-2)Man(a1-6)]Man(b1-4)GlcNAc(b1-4)GlcNAc
# Method in brief: as §1
# [22] = target: Gal(b1-4)GlcNAc(b1-2)[Gal(b1-4)GlcNAc(b1-4)]Man(a1-3)[GlcNAc(b1-4)][Gal(b1-4)GlcNAc(b1-2)[Gal(b1-4)GlcNAc(b1-6)]Man(a1-6)]Man(b1-4)GlcNAc(b1-4)GlcNAc
# Method in brief: as §1
binder,measurement,setting,value
B1,glycan array binding signal (z-score),[1],-0.27
same,glycan array binding signal (z-score),[2],-0.264
same,glycan array binding signal (z-score),[3],-0.26
same,glycan array binding signal (z-score),[4],-0.263
same,glycan array binding signal (z-score),[5],-0.269
same,glycan array binding signal (z-score),[6],-0.247
same,glycan array binding signal (z-score),[7],-0.272
same,glycan array binding signal (z-score),[8],-0.282
same,glycan array binding signal (z-score),[9],-0.249
same,glycan array binding signal (z-score),[10],-0.265
same,glycan array binding signal (z-score),[11],-0.261
same,glycan array binding signal (z-score),[12],-0.232
same,glycan array binding signal (z-score),[13],-0.111
same,glycan array binding signal (z-score),[14],-0.254
same,glycan array binding signal (z-score),[15],-0.268
same,glycan array binding signal (z-score),[16],-0.267
same,glycan array binding signal (z-score),[17],-0.239
same,glycan array binding signal (z-score),[18],-0.248
same,glycan array binding signal (z-score),[19],-0.27
same,glycan array binding signal (z-score),[20],-0.243
same,glycan array binding signal (z-score),[21],-0.233
same,glycan array binding signal (z-score),[22],-0.247
